Assay results reported in publication PMC7442955, “Biochemical and functional characterization of a meiosis-specific Pch2/ORC AAA+ assembly” (Life Science Alliance, 2020).
No constants are given. Whether binding was seen depends on the method and setting. Some results given as binding are weak or reduced against the parent protein; the word gives no strength. Where a sequence is shown, tags or fusion partners need not be part of it.

Experiments:
[1] = target: T1, Orc1 (yeast two-hybrid fusion) (budding yeast) (UniProt P54784); assay: two-hybrid; bait and prey in pGBDU-C1 or pGAD-C1, reporter strain yGV864; spot assay on -Ura-Leu-His plates, 2–4 d
T1 sequence: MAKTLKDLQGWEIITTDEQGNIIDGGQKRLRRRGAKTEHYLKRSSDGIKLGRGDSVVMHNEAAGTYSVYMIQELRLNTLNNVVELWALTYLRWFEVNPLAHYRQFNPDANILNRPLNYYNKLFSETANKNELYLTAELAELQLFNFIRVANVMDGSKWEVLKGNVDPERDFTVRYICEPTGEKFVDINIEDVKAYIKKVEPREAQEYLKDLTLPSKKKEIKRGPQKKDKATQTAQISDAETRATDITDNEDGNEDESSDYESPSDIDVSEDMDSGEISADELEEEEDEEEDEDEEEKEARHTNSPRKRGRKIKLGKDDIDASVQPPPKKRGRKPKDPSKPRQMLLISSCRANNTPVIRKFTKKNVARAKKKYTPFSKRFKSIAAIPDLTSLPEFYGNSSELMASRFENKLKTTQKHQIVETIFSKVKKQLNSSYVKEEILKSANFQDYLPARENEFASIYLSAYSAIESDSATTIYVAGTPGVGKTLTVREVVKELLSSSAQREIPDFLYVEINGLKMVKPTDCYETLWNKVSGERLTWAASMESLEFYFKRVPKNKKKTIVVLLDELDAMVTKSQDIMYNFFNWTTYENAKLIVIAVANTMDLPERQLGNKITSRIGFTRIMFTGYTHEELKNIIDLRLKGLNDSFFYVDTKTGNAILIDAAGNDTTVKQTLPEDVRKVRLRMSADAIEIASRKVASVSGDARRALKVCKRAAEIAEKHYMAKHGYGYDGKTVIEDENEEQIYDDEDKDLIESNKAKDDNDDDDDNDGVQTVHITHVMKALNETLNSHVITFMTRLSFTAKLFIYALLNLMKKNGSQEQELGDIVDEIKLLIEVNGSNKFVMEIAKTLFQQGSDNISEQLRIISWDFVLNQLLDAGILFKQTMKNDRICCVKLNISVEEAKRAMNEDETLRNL

[2] = target: T2, Orc3 (yeast two-hybrid fusion) (budding yeast) (UniProt P54790); assay: as above
T2 sequence: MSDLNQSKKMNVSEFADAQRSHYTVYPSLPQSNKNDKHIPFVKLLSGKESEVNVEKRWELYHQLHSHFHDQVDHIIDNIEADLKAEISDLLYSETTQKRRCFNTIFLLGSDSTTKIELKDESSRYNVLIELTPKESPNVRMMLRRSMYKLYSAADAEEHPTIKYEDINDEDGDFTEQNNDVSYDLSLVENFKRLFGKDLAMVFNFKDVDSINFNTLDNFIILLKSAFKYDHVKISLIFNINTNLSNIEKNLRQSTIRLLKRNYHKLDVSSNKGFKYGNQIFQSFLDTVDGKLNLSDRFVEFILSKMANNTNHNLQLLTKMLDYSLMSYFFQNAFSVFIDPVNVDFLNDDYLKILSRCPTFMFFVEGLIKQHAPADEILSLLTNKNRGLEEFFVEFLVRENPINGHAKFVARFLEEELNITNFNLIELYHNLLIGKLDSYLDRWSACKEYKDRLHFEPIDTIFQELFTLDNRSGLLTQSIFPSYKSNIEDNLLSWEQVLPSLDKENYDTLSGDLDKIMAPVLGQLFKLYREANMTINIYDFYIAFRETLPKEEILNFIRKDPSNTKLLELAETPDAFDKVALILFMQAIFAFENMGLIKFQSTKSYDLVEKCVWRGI

[3] = target: T3, Orc4 (yeast two-hybrid fusion) (budding yeast) (UniProt P54791); assay: as above
T3 sequence: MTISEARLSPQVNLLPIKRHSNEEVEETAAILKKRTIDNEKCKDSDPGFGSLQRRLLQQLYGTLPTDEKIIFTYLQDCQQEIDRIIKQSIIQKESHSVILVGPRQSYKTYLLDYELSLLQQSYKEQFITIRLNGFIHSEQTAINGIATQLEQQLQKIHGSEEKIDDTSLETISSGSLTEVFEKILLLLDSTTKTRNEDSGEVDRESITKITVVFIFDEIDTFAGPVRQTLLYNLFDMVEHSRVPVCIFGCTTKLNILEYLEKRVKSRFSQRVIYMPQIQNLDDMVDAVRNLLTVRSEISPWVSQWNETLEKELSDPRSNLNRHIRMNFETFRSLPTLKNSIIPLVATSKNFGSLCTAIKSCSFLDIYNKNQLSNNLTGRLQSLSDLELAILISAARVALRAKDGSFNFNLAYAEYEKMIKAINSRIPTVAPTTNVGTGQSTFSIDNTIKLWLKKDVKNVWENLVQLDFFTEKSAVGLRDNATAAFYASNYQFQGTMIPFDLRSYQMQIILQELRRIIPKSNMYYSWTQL

[4] = target: His–MBP–Pch2-2-144 (budding yeast) (UniProt P38126); assay: SEC; single purified proteins: His–MBP–Pch2 (2 μM), His–MBP–Pch2-243-564 (2 μM), His–MBP–Pch2-2-144 (6 μM; Superdex 200 5/150 GL); 30 mM HEPES pH 7.5, 150 mM NaCl, 3% glycerol, 2 mM TCEP, 1 mM MgCl2; both purified

Binder | binding [1] | binding [2] | binding [3] | binding [4]
Pch2, full-length (yeast two-hybrid fusion) (protein, UniProt P38126 1-564) MSYIVDLQVRGSSLRVIKCMFREDEQISSLHSGSDSKQNSNKKLGEFLNLLKAVVKRKLESFPKDRLKTSIITGQELMREGQGSIEIKDPPTEAQQHLIRSLAKVLLHQFSSINGKVNTVNEGQDNLFLSLFVKKISIEQQSTSHVSIKLNFHEKINLGQHIDSILDSEETNESDTYHMGSVDEFIIYPFCCLEEQDELKNGSILSTEFDKIDLELDEDDGFEGETLNNCINSVGNFDIPLSKQTLNLVNISYLPGTTFEGQWESLYFGNNIKERLYSYATISLKIARFKQTGDSNQEDITTLITNNKLLLVHGPPGTGKTTLCKALCQKLSVRREFSDGSDTIDTNYKGIIIELSCARIFSKWFGESSKNISIVFKDIEELLKVNEGRGIFICLLIDEVEAIASSRTNLSSRNESTDGIRVVNTLLTQLDRLKKYHNFLALATSNLLDSLDDAFVDRADGVFYVGNPTAEGILHILKVCIEEMITSGIILFHARSTGVKFFNKYQDILRKIAIKCSTVDISGRTIRKLPLMCLSEYFRTFPVDDDEFVLALAMSARKLSAARK | binds | no binding | no binding | 
His–MBP–Pch2-2-144 (domain or fragment, budding yeast, UniProt P38126 2-144, looked up, Pch2, budding yeast, part of the NH2-terminal domain; Monomer by SEC; also called minimal NH2-terminal fragment of Pch2; source: Tnao38 insect cells (baculovirus), purified (TALON, amylose, SEC); not shown: His, N-terminal, kept; MBP, N-terminal, kept) SYIVDLQVRGSSLRVIKCMFREDEQISSLHSGSDSKQNSNKKLGEFLNLLKAVVKRKLESFPKDRLKTSIITGQELMREGQGSIEIKDPPTEAQQHLIRSLAKVLLHQFSSINGKVNTVNEGQDNLFLSLFVKKISIEQQSTS |  |  |  | no binding (tested: 6 μM)
